# From PubChem BioAssay AID488969 (Vanderbilt High Throughput Screening Facility, 2010)
# The full ranking holds about 110,000 compounds; the median of “z-score” is about -0.1, and the highest 2% start at about 2. The list shows a part of the results. Activity calls are given as the source filed them.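 How the source made its calls: active means z-score in the third read window above 3 or below -3; inactive means the rest.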
# Biological target: Metabotropic glutamate receptor 8 (Rattus norvegicus) (UniProt P70579)
# Assay: rat mGluR8 modulators via GIRK flux, primary screen, cell-based, thallium flux, HTS (AID 488969)
# Conditions: HEK293 rat mGluR8, GIRK (G protein-gated inwardly rectifying potassium channel) thallium flux, FluoZin2; at 10 µM; stronger effect = higher value; submaximal glutamate (EC20) added with thallium
# Chain of UniProt P70579 (P70579 whole entry, looked up): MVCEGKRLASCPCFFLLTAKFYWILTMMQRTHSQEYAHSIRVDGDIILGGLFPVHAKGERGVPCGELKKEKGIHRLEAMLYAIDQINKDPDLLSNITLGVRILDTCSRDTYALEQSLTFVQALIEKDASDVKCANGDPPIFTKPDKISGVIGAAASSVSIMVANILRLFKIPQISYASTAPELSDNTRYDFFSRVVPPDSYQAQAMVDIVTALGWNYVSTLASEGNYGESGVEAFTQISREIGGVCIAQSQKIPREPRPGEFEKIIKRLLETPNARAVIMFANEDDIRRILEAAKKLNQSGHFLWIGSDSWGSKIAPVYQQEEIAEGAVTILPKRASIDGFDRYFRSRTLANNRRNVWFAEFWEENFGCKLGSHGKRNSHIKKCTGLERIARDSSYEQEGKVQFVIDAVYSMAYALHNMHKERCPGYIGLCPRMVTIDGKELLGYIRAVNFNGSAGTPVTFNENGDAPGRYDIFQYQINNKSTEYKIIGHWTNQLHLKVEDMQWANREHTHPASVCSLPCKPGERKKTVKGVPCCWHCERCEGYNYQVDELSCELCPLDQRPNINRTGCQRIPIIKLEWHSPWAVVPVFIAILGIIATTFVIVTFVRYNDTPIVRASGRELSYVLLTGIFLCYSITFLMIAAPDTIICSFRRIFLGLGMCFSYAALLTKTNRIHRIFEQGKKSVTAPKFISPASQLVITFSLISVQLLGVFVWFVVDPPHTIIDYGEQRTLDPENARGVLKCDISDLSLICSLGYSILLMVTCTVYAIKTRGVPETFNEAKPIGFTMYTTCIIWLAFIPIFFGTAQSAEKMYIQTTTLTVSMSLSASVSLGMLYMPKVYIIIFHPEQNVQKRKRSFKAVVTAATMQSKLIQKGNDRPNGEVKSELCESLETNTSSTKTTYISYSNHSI
row,Compound,z-score
1,CCOC(=O)c1ccc(Nc2nnc(C(C)(C)C)c(=O)[nH]2)cc1,-0.532
2,CCCC(=O)Nc1ccc(C(=O)O)cc1NC(=O)CCC,-0.181
3,COc1ccc(/C=C2\CCCC(C(=O)C(F)(F)F)=C2O)cc1,2.59
4,CC1=C(C(=O)Nc2ccc(C)cc2)C(c2ccco2)NC(=O)N1 (stereo not drawn),-0.8
5,COc1cc(C2c3c(-c4ccccc4)n[nH]c3C(=O)N2c2ccc(C(=O)O)cc2)ccc1O (stereo not drawn),-0.268
6,COC(=O)c1ccccc1NC(=O)C1CC(=O)N(c2ccccc2)C1 (stereo not drawn),-0.0106
7,CC(C)CCNC(=O)c1ccc2nc[nH]c2c1,-0.133
8,CC(C)c1ccc(NC(=O)COC(=O)/C=C/c2cccc(Br)c2)cc1,-0.0329
9,Cc1cc(C)c2c(CC(=O)Nc3nccs3)coc2c1,0.202
10,COc1ccc(CCNC(=O)c2ccc3c(c2)NC(=O)C(N2CCOCC2)S3)cc1OC (stereo not drawn),-0.194
11,Cc1cccc(-n2ncc3c(NCCCN4CCCC4=O)ncnc32)c1,-0.117
12,O=C(Nc1cnc2ccccn2c1=O)c1ccc(Cl)cc1,-0.161
13,CC1SC(c2cccc(Cl)c2)NC1=O (stereo not drawn),0.0604
14,CCc1ccc2nc(NC(=O)CSCc3c(C)noc3C)sc2c1,-0.0333
15,Cc1ccc(NC(=O)Nc2cccc([N+](=O)[O-])c2)cc1F,-0.525
16,CCC(=O)Nc1cccc(C(=O)c2ccccc2)c1,-0.144
17,CCn1c(NC(C)=O)nc2ccccc21,-0.0713
18,O=C(O)CSc1nnc(-c2ccncc2)n1-c1ccc(Cl)cc1,-0.269
19,CCOC(=O)c1ccc(CNCc2ccc(C)cc2)cc1,0.302
20,Cn1c(=O)n(C)c2cc(/C=N/n3cnnc3)ccc21,0.045
21,CC(C)n1c(O)c(N=NC(=O)Cn2ccc(C(F)(F)F)n2)c2ccccc21,1.13
22,C/C(Sc1nnc(Cc2ccccc2)o1)=C(/O)c1ccccc1,-0.227
23,C=CCSc1nc(-c2ccc3c(c2)OCO3)cc(C(F)(F)F)c1C#N,-0.124

row,Compound,z-score
1,CS(=O)(=O)N(Cc1ccc(C(=O)NCc2ccco2)cc1)c1ccccc1,-0.268
2,O=C(/C=C/Nc1cccc(F)c1)c1ccco1,-0.353
3,CCCn1nnc(NC(=O)Cc2ccccc2)n1,0.0335
4,O=C1CC(N2CCSCC2)C(=O)N1CCc1ccccc1 (stereo not drawn),-0.109
5,CCOC(=O)CC1C(=O)NCCN1S(=O)(=O)c1cc(Cl)c(Cl)cc1Cl (stereo not drawn),0.372
6,Cc1ccc(NC2=C(CC(=O)O)C(c3ccccc3)N(c3ccc(C)cc3)C2=O)cc1 (stereo not drawn),-0.426
7,Cc1nc2nc(-c3ccccc3)[nH]n2c(=O)c1C,-0.392
8,C=CCNC(=S)N1CCN(c2ccc([N+](=O)[O-])cc2)CC1,2.09
9,Cn1c(NC(=O)c2cccnc2)nc2ccccc21,1.12
10,CC(=O)Nc1cc2c(nc1C)nc(C)n2Cc1ccc(Br)cc1,0.526
11,CCn1c(SCC(=O)Nc2nc3ccccc3s2)nnc1-c1ccc(OC)cc1,-0.418
12,CC1CCN(S(=O)(=O)c2ccc3[nH]c(=O)c(=O)[nH]c3c2)CC1,0.0825
13,Cc1cccc(N=C2NC(=O)CS2)c1,0.297
14,c1cc(-c2noc(CC3CCCCC3)n2)ccn1,-0.0618
15,COCCCN1CC23C=CC(O2)C(C(=O)OC)C3C1=O (stereo not drawn),0.19
16,Clc1cccc(CSc2nnc(-c3ccccn3)n2Cc2ccco2)c1,active: 3.12
17,CC(C)(C)c1n[nH]c(=S)n(N)c1=O,-0.328
18,N#Cc1cn(CCOc2ccc(F)cc2)c2ccccc12,-0.28
19,O=C(COC(=O)c1cccc(S(=O)(=O)NCc2ccccc2)c1)c1ccc2c(c1)OCCO2,-0.271
20,Fc1ccc(F)c(CN2CCN(c3ncccn3)CC2)c1,-0.52
21,COC(=O)C1=C(C)NC(=S)N(C(C)=O)C1c1ccccc1 (stereo not drawn),-1.61
22,COc1ccc(C(=O)NC(Nc2ccccc2)C(Cl)(Cl)Cl)cc1 (stereo not drawn),-0.177
23,Cn1c(N/N=C2\CCCc3ccccc32)nc2c1c(=O)n(Cc1ccccc1)c(=O)n2C,-0.306

row,Compound,z-score
1,C=CCNc1nc(Nc2ccc([N+](=O)[O-])cc2)nc(OCC)n1,-0.211
2,COc1ccccc1CC(NC(C)=O)C(=O)N1CCN(C(=O)Nc2ccccc2Cl)CC1 (stereo not drawn),-0.275
3,COc1ccc(Cn2nnnc2C(c2cc3cc(C)cc(C)c3[nH]c2=O)N2CCOCC2)cc1 (stereo not drawn),0.309
4,Cc1ccc2c(c1)nnn2C1CCN(S(C)(=O)=O)CC1,-0.0619
5,Cc1cccn2c(=O)c3cc(C(=O)N4CCCc5ccccc54)n(C)c3nc12,-0.141
6,O=C1CCSc2cccc3cccc(c23)N1,-1.36
7,N/C(=N\c1nc(C(F)(F)F)cc(=O)[nH]1)Nc1ccc(Cl)cc1,-0.203
8,COc1cccc2[nH]c3c(N4CCC(C(N)=O)CC4)ncnc3c12,0.0357
9,NC(=O)c1ccccc1NC(=O)/C=C/c1c(Cl)cccc1Cl,-0.0879
10,CCc1cc(C(=O)NCCN(C)C)cs1,0.168
11,Cc1ccc(NC(=O)c2ccc(OCC3CCCO3)cc2)c(C)c1 (stereo not drawn),-0.207
12,COc1ccc(CNC(=O)/C=C/c2cc([N+](=O)[O-])ccc2OC(F)F)cc1,-0.527
13,CCNC(=S)N1CCN(CCN=CC2=C(O)CC(c3cccs3)CC2=O)CC1 (stereo not drawn),-0.239
14,Cc1cccc(CS(=O)(=O)Cc2ccc(C(=O)NCCCN3CCCC3)o2)c1,0.19
15,O=C(CCS(=O)(=O)c1ccccc1)Nc1ccc(-c2nc3ccccc3s2)c(O)c1,-0.367
16,N#Cc1cc2c(nc1SCC(N)=O)CCCCC2,-0.0763
17,O=C(NCCCN1CCC(Cc2ccccc2)CC1)C1CC(=O)N(C2CCCC2)C1 (stereo not drawn),0.137
18,O=C(NCC1(c2ccccc2)CCCC1)c1cccc(Br)c1,-0.577
19,CSc1nc2ccc(NS(=O)(=O)c3c(Cl)cccc3Cl)cc2s1,-0.352
20,Fc1cccc2sc(Nc3nc4cc5c(cc4s3)OCO5)nc12,active: 5.54
21,CCc1ccccc1OCC(=O)N(CC)CC(=O)NCc1ccc(F)cc1,-0.108
22,c1ccc2c(c1)c1c3n2CCNC3CCC1 (stereo not drawn),0.738
23,Cc1cc(Nc2ccc(F)cc2)nc(N)n1,-0.23

row,Compound,z-score
1,CCc1ccc(S(=O)(=O)N2CC(=O)Nc3ccccc32)cc1,-0.195
2,Nc1nc2n(c1C(=O)c1ccccc1)CCC2,0.00409
3,Cc1ccc(C)c(OCC(=O)NCC(C)C)c1C,-0.237
4,CCn1cc([N+](=O)[O-])nc1C,-0.182
5,COc1ccccc1C(=O)NC(CCSC)C(=O)NCC(c1ccco1)N(C)C (stereo not drawn),0.912
6,CC12CCC(C(=O)Nc3cccc(NC(=O)C45CCC(C)(C(=O)O4)C5(C)C)n3)(OC1=O)C2(C)C,0.184
7,CN(C)CCOc1ncnc2c1oc1ccccc12,-0.0266
8,CCOC(=O)/C(=C/C=C/c1ccccc1)NC(=O)c1ccccc1,-0.198
9,C=CCn1c(SCC(=O)N(CC)CC)nc(O)cc1=O,0.412
10,Fc1cccc(F)c1CN1CCN(c2ncccn2)CC1,-0.0517
11,Cc1cc(C)n(Cc2ccccc2)c(=O)c1S(=O)(=O)c1ccccc1,0.054
12,CCOP(=O)(OCC)C(NC(=O)Nc1ccc(Cl)cc1)C(N)=O (stereo not drawn),-0.302
13,CCOC(=O)CSc1nc(-c2ccc3c(c2)OCO3)ccc1C#N,-0.00752
14,CCOC(=O)c1cnc2scnn2c1=O,-0.153
15,COc1ccccc1N1CCN(C(=O)CCn2c(=O)[nH]c3ccccc3c2=O)CC1,-0.352
16,C=CCN(CC=C)C(=S)NC(=O)c1ccc(C)c(Br)c1,active: 15.3
17,CN(C)S(=O)(=O)N1CCN(CC(O)COc2ccc3cc(Br)ccc3c2)CC1 (stereo not drawn),0.146
18,Cc1cc(C(=O)OCC(=O)NC2CCS(=O)(=O)C2)c(C)n1-c1ccccc1 (stereo not drawn),-0.776
19,O=C(N/N=C/c1cn(-c2ccccc2)nc1-c1cccs1)c1ccncc1,0.323
20,COCc1[nH]nc2c1C(c1sccc1C)C(C#N)=C(N)O2 (stereo not drawn),-0.751
21,N=C1S/C(=C\c2ccccc2)C(=O)N1c1ccc(F)cc1,0.0891
22,COc1ccc(CCNS(=O)(=O)c2ccc3c(c2)OCCO3)cc1OC,0.185
23,CCOC(=O)C(NCc1ccco1)(NC(=O)c1ccc(OC)cc1)C(F)(F)F (stereo not drawn),-0.102

row,Compound,z-score
1,O=C(CSc1nc2c(sc3ccccc32)c(=O)n1CCCN1CCOCC1)NC1CCCC1,-0.172
2,CC1CN(C2CCCCC2)c2nc3c(c(=O)[nH]c(=O)n3C)n2C1 (stereo not drawn),-0.343
3,CC(C)NC(=O)/C(=C/c1cn(-c2ccccc2)nc1-c1cccc([N+](=O)[O-])c1)NC(=O)c1ccccc1,-0.769
4,O=C(COC(=O)[C@@H]1CC(O)CN1S(=O)(=O)c1ccccc1[N+](=O)[O-])Nc1ccc2ccccc2c1 (stereo partly drawn),0.813
5,Cc1cc(/C=C2/NC(=O)NC2=O)c(C)n1-c1ccccn1,-0.389
6,O=C(CCN1CCN(CC(=O)Nc2ccccc2Cl)CC1)Nc1ccccc1F,-0.181
7,CCCCOc1ncnc2c1[nH]c1ccc(OC)cc12,0.111
8,O=C(Cc1ccccc1F)Nc1cccc2cccnc12,-0.168
9,CCN(CC)S(=O)(=O)c1cccc(C(=O)N[C@H](C(=O)O)C(C)C)c1,-0.173
10,N=c1c2c(ncn1Cc1ccco1)Oc1c(ccc3ccccc13)C2c1ccccc1 (stereo not drawn),0.538
11,CCOC(=O)Cn1c(=O)oc2cc(S(=O)(=O)NC(C)c3ccccc3)ccc21 (stereo not drawn),0.114
12,CCOC(=O)Cn1c(=O)c2c(nc(Br)n2Cc2ccccc2Cl)n(C)c1=O,-0.225
13,COc1ccc(C2C3=C(CC(C)(C)CC3=O)OC(N)=C2[N+](=O)[O-])cc1 (stereo not drawn),-0.21
14,CCOc1ccc(N(C)S(=O)(=O)c2ccc3[nH]cc(C(=O)NCC4CCCO4)c(=O)c3c2)cc1 (stereo not drawn),-0.352
15,COc1ccc(/C=C/C(=O)N/C(=C\c2ccco2)C(=O)NCCc2nc3ccccc3[nH]2)cc1,-0.806
16,CCOC(=O)N/N=C(\C)c1ccc(C)c([N+](=O)[O-])c1,-0.144
17,COc1ccc([N+](=O)[O-])cc1NC(=O)CCc1ccccc1,-0.451
18,COC(=O)c1ccc(CSc2n[nH]c(=S)s2)o1,-0.155
19,Cc1ccc2oc(=O)n(CC(=O)O)c2c1,0.169
20,CC(C)CCn1c(SCCc2ccccc2)nc2c1c(=O)[nH]c(=O)n2C,-0.0965
21,O=C(CCC(=O)N(c1cccc(F)c1)C(C(=O)NC1CCCC1)c1ccncc1)Nc1cccnc1 (stereo not drawn),-0.0961
